In the supplement of paper PMC10126150:
Values marked as one replicate rest on one cluster of the flow cell; about a third of the high ones do not repeat.

System: ATP
Assay: switch fluorescence ratio, 500 uM ATP over buffer (Cy3 cluster intensity, sum of 5 cycles each) (fold (ratio)); higher = stronger signal-on switching upon ATP binding; sequences stand for … in TCGTCGGCAGCGTCAGATGTGTATAAGAGACAGTTTTTTTTTTTTTTTTTTTTTTTTT…TC
Conditions: aptamer strand: ATP DNA aptamer (quencher-CACCTGGGGGAGTATTGCGGAGGAAGG + anchor), 100 nM annealed; ATP concentration: 500 uM; one replicate
Procedure, shortened: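 After annealing to 100 nM quencher-labelled ATP aptamer, Cy3-labelled switching-strand clusters on a modified Illumina MiSeq flow-cell were imaged in selection buffer. A second image followed after 15 min with 500 uM ATP at 22 °C, and five such buffer/ATP cycles were done, each separated by NaOH stripping and re-annealing. The fluorescence ratio, averaged per switch-domain sequence, is summed target-cycle over summed buffer-cycle Cy3 intensity per cluster, with clusters outside 100-1000 RFU excluded.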
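Further: ATP exposure 15 min at 22 °C before imaging.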

Sequence | switch fluorescence ratio
TAAGCGATAG | 1.26
GCATCAGCGC | 0.992
CCCCAGACCA | 1.13
ACTAGCGAAA | 1.01
AAGAAACATG | 1.01
AGGGGCAAGT | 0.96
GCTAGACGAT | 1.06
CAACGCTAAT | 2.49
GGTCAAGAGG | 0.962
ACGTGAAAAT | 1.1
TCTCAGCTAG | 1.11
GATGAAATAG | 1.08
TGGCATCCCT | 1.01
CCTGTTCACA | 1
TTGCTTTCTT | 1.04
ATATCGCCCT | 1.01
GGTTAAAGG | 1
CTTGCTCCAT | 1.27
CGGTACAGTT | 1.01
GGCCTTTGTG | 0.929
ATCCCCATCG | 1.04
TCACAGGCGA | 1.03
AATCTAAACT | 1.03
AATGGACGCT | 1.03
GAGATAGTGG | 1.02
CACATAGCAC | 1.24

Sequence | switch fluorescence ratio
AAGAATAACT | 0.993
ACCGGGTCGT | 0.978
GGGGCTTTGT | 1.01
GGGACAGTAA | 1.02
GACCCCAATA | 1.48
TAGTGGGTAA | 1.01
ACCAAGCAA | 2.51
CATTTACGGA | 0.987
CATCTAGTGT | 1.01
GCTCATTG | 0.982
CGTATCGATA | 0.992
ATGTTGCTCG | 0.995
GCTGGCGGCC | 1
GGGTGTGTTC | 1.05
AATAAGGCGT | 1.04
TGAACGGAAG | 1.06
ACTCAGAAAT | 1.47
CGAGTTTCTA | 0.981
TCTGAAGCTG | 1.26
AGGTGGGAGA | 0.999
TCGTAAACCT | 2.63
CTTTTGGCGG | 1.03
AGCCGCCGCC | 1.51
GGATCGAGTG | 0.991
GATGCCGTCC | 1.05
TACTTGAAGG | 1.04

Sequence | switch fluorescence ratio
AATACTGTTA | 1.07
CGTGGAAATC | 1
GACAGGAGCG | 1.05
CAAGGCTCGG | 1.06
AAGGGCGGCG | 0.981
CGTCTACGAT | 1.02
CGCTAGCAAA | 1.29
GGGACGGGCC | 1.01
ACGCATCACG | 1.14
GTTTTTTGG | 0.997
TACAAATCT | 1.02
ATAACACAGC | 1.06
GTCGCGCCAC | 1.03
ACAGGATCA | 1
TCGAGGGGCA | 1.01
ATAAACGTGC | 1.12
TGGGAGTTTG | 0.99
GGAAGCTAGC | 0.959
ATGAATCACC | 1.03
GTTAATCGTA | 0.988
TAGTCCCGTT | 0.95
TATCCCTTCA | 1.28
TATTTATGC | 1.05
CGGGTATGTT | 0.996
CTGCGGAACT | 1.08
TCAGGTTGCA | 1.03

Sequence | switch fluorescence ratio
CCGTTTTTTT | 0.958
AATCAAATGC | 1.01
CCGATAGACG | 0.999
TACAGGTGTA | 1.39
CAACAGAGCC | 1.02
CACATGGGTC | 1.04
TAGTTCAGAT | 1
CGGCTTTT | 0.949
GAGATCCGAC | 1.1
CGTTAGTCAC | 0.97
TACCTTGAT | 1.04
TGTACACATG | 1.01
CTCACTTGG | 1
TTTCTATACT | 1.11
CTATTAATTG | 0.996
TCGGTGTGGG | 0.987
GAAAACAAAC | 1.51
GTGCATTTGA | 0.972
CGGGTTAC | 1.11
TAGGCACGCA | 1.07
TGTGTGCTTA | 0.984
GTCATTATGG | 0.975
AGGTGTACAC | 1.01
CGTCAAAACA | 1.03
CCTAGAAAGT | 0.991
GATATAACGT | 1.01

Sequence | switch fluorescence ratio
TGGGGACAGA | 0.965
ATAGTGGGCT | 0.978
AACGACCTAA | 1.07
CACCGCTTTT | 2.73
TTCGTTTTCC | 1.15
CCCGATAGCT | 1.12
ATAACTCCTG | 0.984
AGCTAGTGCG | 1.03
GCCATTGCAA | 0.984
TGGAGGGCAG | 0.998
TCTCCAAGCG | 1.13
ATGGGGTCCG | 0.971
GGGTGTTTAA | 1.01
TAGTATTACA | 1.04
TTGATGCACA | 0.962
CACTAGGGAG | 0.991
GCTTCCCTAT | 1.08
TACATGGTAA | 0.995
GCTTAATGTT | 1
GATACTTAAT | 0.947
TCCTGGGGAA | 1.15
CGCTAGCTGG | 1.02
GTAGGTAGGG | 0.982
TGACCTAAAA | 0.982
TAGGGTGGTA | 0.995
CGTCCAAGGT | 1.12

Sequence | switch fluorescence ratio
GGACGGCATT | 1.13
CTGACATGGG | 1
GTGGGTATCA | 1.07
ATTCTTGGTT | 0.955
GTGCTGCAAC | 1.08
AGATGATGTA | 0.997
TAAGAAGAGG | 0.993
TTCGTCCTGT | 0.999
GGCGTTATAA | 1.06
TGGCGCTCAC | 1.13
ACGCGTATCA | 1.03
CGCGGTTCTT | 1.07
TTTAAGGTCT | 1.02
CCGGTCCAGG | 2.21
GGAGTACCAC | 0.994
GGTGCCTCGG | 1.06
CTCCTAACCG | 1.11
GACTGTCTCG | 0.894
GAGCTATTAT | 1.06
AGTTCGGCAC | 1.03
CTCGGGTCAA | 1.24
CATCCATTAA | 1.04
GATACGG | 0.982
